# Measured values: PubChem BioAssay AID1745845 (National Center for Advancing Translational Sciences (NCATS), 2022)
# Values joined by “and” are separate entries in the source; they are usually repeats but may differ in a detail not shown here. Equal entries are not always repeated. In all, about 360,000 compounds went through this assay and about 2,600 (0.72%) were called active. The inconclusive results got no clear call from the source; some entries with a clear call stand among them for comparison. Calls follow the shape of the dose curve; as a rule, active = well fitted inhibition curve with a large enough effect; inconclusive = small, poorly fitted or top-dose-only effect; inactive = no such curve, though single readings can be large or run the other way. Potencies beside an inconclusive call are fits to weak or partial responses and may not hold up.
# Experiment: Primary qHTS for Inhibitors of ATXN expression; also: nearly all actives have a fitted effect of over 55% in size
# Details: HEK-293 ATXN2-luciferase reporter, luminescence, 24 h; activity change, negative = inhibition: at 57 µM (top of the series)
# Outline: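 qHTS (up to 57 uM final) was run with 24 h compound exposure of reporter cells at 37 °C. Each well was multiplexed: SteadyGlo luminescence measured ATXN2-luciferase expression after a fluorogenic Gly-Phe-AFC viability readout (25 uM final).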
# % is scaled to controls: 0 for no effect and ±100 for the full control effect; potency is read from the fitted curve at half-maximal effect; tags tell the direction and shape of the fitted curve.
Compound,Potency,"activity change, negative = inhibition"
C[C@H](CO)N1C[C@H](C)[C@H](CN(C)Cc2ccccc2)Oc2ccc(NC(=O)Nc3ccc(F)cc3)cc2C1=O,"inconclusive: 39.8 µM [inhibitor, single point]",–
CC(=O)Oc1ccccc1Cn1c(C)c(C(=O)NCc2cccc(Cl)c2)sc1=O,"inconclusive: 28.2 µM [inhibitor, partial curve, poor fit]",–
CCSc1nnc(CNC(=O)C23CC4CC(CC(C4)C2)C3)n1C1CCCCC1,–,inactive: 0.507%
C=C1CCN([C@@H](CC(C)C)C(=O)NCc2ccc(Cl)cc2)S(=O)(=O)c2ccccc21,–,inactive: 6.33%
COC(=O)N1CC=CC1(C)C(=O)NCc1cc(F)cc(C(F)(F)F)c1 (stereo not drawn),"inconclusive: 39.8 µM [inhibitor, single point]",–
Cc1ccc(C)c(S(=O)(=O)N2CCN(c3nc(-c4cccnc4)nc4ccccc34)CC2)c1,"inconclusive: 28.2 µM [inhibitor, single point]",–
Clc1ccc2nc(-c3ccc4c(c3)OCO4)cn2c1,"inconclusive: 18.9 µM [inhibitor, single point]",–
COc1ccc(C(=O)Nn2c(SCc3cccc([N+](=O)[O-])c3)nc3ccccc3c2=O)cc1,–,inactive: -10.9%
COc1ccc(/C=C/c2nc3ccccc3n2Cc2ccccc2OC)cc1,–,inactive: -20.5%
COc1ccc(OC)c(C2C=C(C34CC5CC(CC(C5)C3)C4)NC(=S)N2)c1 (stereo not drawn),"inconclusive: 3.98 µM [inhibitor, partial curve, poor fit]",–
COc1ccc(C(=O)Nc2ccc3c(c2)nc(CN2CCN(C(C)=O)CC2)n3C)cc1,–,inactive: 1.89%
CC(=O)Oc1ccc(C2(c3ccc(OC(C)=O)cc3)Oc3ccccc3NC2=O)cc1,"inconclusive: 22.4 µM [inhibitor, partial curve, poor fit]",–
CCOC(=O)C1=C(COC(=O)c2ccc(C)s2)NC(=O)NC1C (stereo not drawn),"inconclusive: 15.8 µM [inhibitor, single point]",–
COc1ccc(CCNC(=O)CSc2nnc(-c3ccc(C)cc3)c(-c3ccc(C)cc3)n2)cc1OC,–,inactive: 5.89%
COC(=O)[C@]12CCCCC=C1N(Cc1ccco1)C(=O)[C@H](CC(=O)NCC13CC4CC(CC(C4)C1)C3)C2,"inconclusive: 39.8 µM [inhibitor, single point]",–
c1ccc(CNc2nc(NCC3CC3)nc3cc(-c4ccccc4)sc23)cc1,"inconclusive: 39.8 µM [inhibitor, single point]",–
CC(C)(C)n1nnnc1C(c1ccc(F)cc1)N(Cc1ccc(F)cc1)Cc1ccco1 (stereo not drawn),"inconclusive: 35.5 µM [inhibitor, partial curve, poor fit]",–
CC(C)OC(=O)NC(c1ccccc1)C(Cl)(Cl)Cl (stereo not drawn),–,inactive: -20.2%
CNc1cncc(-c2cc(C)c(O)c(C)c2)n1,–,inactive: 24.3%
COc1ccc([C@H]2C[C@H](O)[C@@H](n3cc(-c4ccc(F)cc4)nn3)CN2CC2CCCCC2)cc1,"inconclusive: 28.2 µM [inhibitor, single point]",–
CCOC(=O)CC(NC(=O)CCc1c(C)nc2cc(-c3ccccc3)nn2c1C)c1ccc(C)cc1 (stereo not drawn),"inconclusive: 28.2 µM [inhibitor, single point]",–

Compound,Potency,"activity change, negative = inhibition"
COc1ccc(NC(=O)c2ccc(-c3nn(C)c(=O)c4ccccc34)cc2)cc1,–,inactive: -15%
Oc1ccc(C[C@H]2CNC(=S)N2CC2CCCN2C[C@H](Cc2ccccc2)N2C[C@H](Cc3ccc(O)cc3)N(CC3CCCCCC3)C2=S)cc1 (stereo partly drawn),"inconclusive: 39.8 µM [inhibitor, single point]",–
COc1cccc(NC(=O)CN2C(=O)CSc3ccc(S(=O)(=O)N4CCC(C)CC4)cc32)c1,"inconclusive: 39.8 µM [inhibitor, single point]",–
S=C(Nc1cccc(Cl)c1)N(CCCN1CCCC1)Cc1cccn1Cc1ccc(Cl)cc1,active: 31.6 µM,–
CCCCCNCc1cccc(Br)c1,–,inactive: -10.2%
CC(C)c1ccc(C2C3=C(CC(C)(C)CC3=O)NC3=C2C(=O)c2ccccc23)cc1 (stereo not drawn),"inconclusive: 15.8 µM [inhibitor, partial curve]",–
CCN(CC)CCC(=O)N1C/C(=C/c2ccccc2)C(=O)/C(=C\c2ccccc2)C1,active: 23.8 µM,–
CN(C)C(=O)c1ccc2c3c(cccc13)CC2,"inconclusive: 9.47 µM [inhibitor, partial curve, poor fit]",–
CCC[C@H](NC(=O)C(C#N)=Cc1cccc(Br)n1)c1ccccc1,active: 10.9 µM,–
N#CC(C#N)=C1SC(=Nc2ccccc2)C(=Nc2ccccc2)N1c1ccccc1,active: 26.7 µM,–
COc1ccccc1Nc1nc(-c2ccc3c(c2)NC(=O)CO3)cs1,"inconclusive: 28.2 µM [inhibitor, single point]",–
Cc1c(C(=O)Nc2ccc(N3C[C@@H](C)O[C@@H](C)C3)nc2)cccc1-c1ccc(OC(F)(F)F)cc1,"inconclusive: 6.85 µM [inhibitor, partial curve]",–
CCC(=O)N1Cc2cc(C(=O)Nc3nccs3)nc(-c3cccc(-c4ccccc4OC)c3)c2[C@H]1CCO,"inconclusive: 14.1 µM [inhibitor, partial curve, poor fit]",–
O=C(NC(c1ccccc1)c1c(O)ccc2ccccc12)c1ccccc1Cl (stereo not drawn),"inconclusive: 20 µM [inhibitor, partial curve]",–
CN(C(=O)CSc1nc2ccccc2[nH]1)c1ccc(F)cc1,–,inactive: 29.6%
O=C(Nc1nc(-c2ccc(S(=O)(=O)N3CCCCCC3)cc2)cs1)c1cccs1,"inconclusive: 8.91 µM [inhibitor, partial curve, poor fit]",–
Cc1cccc(C)c1NC(=O)CN(C)S(=O)(=O)c1ccc2[nH]c3c(c2c1)CCCC3,"inconclusive: 31.6 µM [inhibitor, single point]",–
Cc1ccc(CNC(=O)CNC(=O)c2ccc(C(C)(C)C)cc2)n1C,–,inactive: -4.94%
CCOc1ccc(C(=O)Nc2ccc3nc4c(c(Nc5ccccc5OC)c3c2)CCCC4)cc1,"inconclusive: 25.1 µM [inhibitor, single point]",–
Nc1cc(C(F)(F)F)c(-c2cc(N3CCOCC3)nc(N3CCOCC3)n2)cn1,"inconclusive: 0.968 µM [inhibitor, full curve]",–
CCC1CCc2sc(C(=O)NC3CCN(Cc4ccccc4)CC3)cc2C1 (stereo not drawn),"inconclusive: 39.8 µM [inhibitor, single point]",–

Compound,Potency,"activity change, negative = inhibition"
CCOC(=O)CC(NS(=O)(=O)c1cc(-c2cc(C)no2)ccc1C)c1ccc(C)cc1 (stereo not drawn),"inconclusive: 35.5 µM [inhibitor, single point]",–
S=C(NCCSCc1ccc(Cl)cc1Cl)Nc1ccccc1,–,inactive: -10.4%
Cc1cc(C)cc(C(O)c2ncc(-c3ccc(C(F)(F)F)cc3)[nH]2)c1 (stereo not drawn),"inconclusive: 39.8 µM [inhibitor, single point]",–
CCN1CCN(Cc2ccc(NC(=O)c3ccc(C)c(NC(=O)N4CCNC4=O)c3)cc2C(F)(F)F)CC1,"inconclusive: 39.8 µM [inhibitor, single point] and inconclusive: 25.1 µM [inhibitor, partial curve, poor fit]",–
O=C(COC(=O)c1cc([N+](=O)[O-])ccc1N1CCOCC1)Nc1ccc(Cl)cn1,active: 7.08 µM,–
Cc1cnc(NC(=O)Nc2cc(Br)c(C)cc2OC[C@@H]2CNCCO2)cn1,active: 1.22 µM,–
CC(=O)c1ccc(-c2cccc(-c3nc4ccccn4c3NC3CCCCC3)c2)cc1,"inconclusive: 28.2 µM [inhibitor, single point]",–
CCCc1nc2ccc(C)cn2c1Cc1ccc(C)cc1,"inconclusive: 39.8 µM [inhibitor, single point]",–
CCOC(=O)c1cc(-c2ccc(C)cc2)n(CCC(=O)Nc2cc(Cl)ccc2C)c1C,–,inactive: 7.88%
COCCN1Cc2cccc(C(=O)Nc3cccc(-c4nc5ccccc5[nH]4)c3)c2C1=O,"inconclusive: 22.4 µM [inhibitor, single point]",–
Cc1ccccc1Nc1nc(N)nc(CSc2nc3ccccc3c(=O)n2C)n1,"inconclusive: 20 µM [inhibitor, single point]",–
Cc1ccccc1NC(=O)Nc1nnc(Cc2ccc([N+](=O)[O-])cc2)s1,"inconclusive: 10 µM [inhibitor, partial curve]",–
CCOC(=O)/C=C/S(=O)(=O)c1ccc(NC(C)=O)cc1,"inconclusive: 39.8 µM [inhibitor, single point]",–
O=C(N/N=C/c1ccc([N+](=O)[O-])s1)c1ccccc1Br,"inconclusive: 12.6 µM [inhibitor, partial curve, poor fit]",–
CC(=NNc1nc2ccccc2s1)c1ccncn1,"inconclusive: 5.01 µM [inhibitor, full curve, poor fit]",–
CC(=O)C(=Cc1ccc(-c2ccccc2)cc1)C(=O)c1ccccc1,"inconclusive: 39.8 µM [inhibitor, single point]",–
c1ccc(CCc2cn(C[C@H]3CC[C@@H]([C@@H]4CC[C@H](Cn5cc(CCc6ccccc6)nn5)O4)O3)nn2)cc1,"inconclusive: 25.1 µM [inhibitor, partial curve, poor fit]",–
CCOc1cc(CNCc2ccncc2)cc(Br)c1OCc1ccc(F)cc1,"inconclusive: 15.8 µM [inhibitor, partial curve]",–
COCCn1c(N)c(C(=O)NCC2CCCO2)c2nc3ccccc3nc21 (stereo not drawn),–,inactive: -15.8%
c1ccc(-c2c(-c3ccccc3)n(Cc3ccco3)c3ncnc(NCCCn4ccnc4)c23)cc1,"inconclusive: 31.6 µM [inhibitor, single point]",–
CCOc1ccc(OC(=O)NC(c2ccccc2)C(Cl)(Cl)Cl)cc1 (stereo not drawn),–,inactive: -6.91%
